Experimental data as given in PubChem BioAssay AID743279 (National Center for Advancing Translational Sciences (NCATS), 2014).
Out of some 360,000 compounds screened, about 17,000 (4.7%) were called active. The inconclusive results got no clear call from the source; some entries with a clear call stand among them for comparison. No stated cut-off is given here; in the data, active means activity change below about -50%; inconclusive means mostly about -30% to -49%; inactive means weaker than that.

experiment: qHTS for Inhibitors of Inflammasome Signaling: IL-1-beta AlphaLISA Primary Screen; conditions: THP-1 LPS/ATP IL-1B secretion, 16 h; at 57.5 µM, stronger effect = lower value
In short: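 THP-1 cells pretreated 1 hr with compounds (up to 57.5 uM final), then stimulated with LPS (250 ng/mL final) plus ATP (1.25 mM final); secreted IL-1B measured by AlphaLISA after 16 hr, decreased signal indicating inhibition.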
On the % scale 0 is the no-effect control and ±100 the full control effect.

Activity change, active:
Cc1ccccc1OCCNC(=O)/C=C/c1ccc([N+](=O)[O-])cc1 -69.5%
O=C(c1ccc(S(=O)(=O)Cc2cc(F)ccc2F)c([N+](=O)[O-])c1)N1CCOCC1 -99.8%
Cn1c2ccccc2c2cc(/C=N/NC(=O)c3cc(O)cc(O)c3)ccc21 -86.2%
CC(=O)N1CCCc2cc(S(=O)(=O)N3CCCC(C(=O)N4CCN(c5cc(C)ccc5C)CC4)C3)ccc21 (centres undefined) -77.8%
Cc1noc(C)c1COc1ccccc1C(=O)NCCc1ccc(Cl)cc1 -68.9%
CCOC(=O)c1cnc2ccc(OCC)cc2c1N(C)Cc1ccccc1 -71.1%
Cc1ccccc1Nc1c(-c2ccncc2)nc2ccc(Cl)cn12 -51.9%
CC1(C)CC(=O)CC2(C1)NCC(c1ccccc1)c1c2[nH]c2ccccc12 (centres undefined) -68.5%
COc1ccc(CCNCC2C(Oc3ccc(Cl)cc3)C(=O)N2c2ccccc2C)cc1OC (centres undefined) -72.6%
CCCc1ccc2oc(C(=O)NCCN3CCCC(O)C3)c(C)c2c1 (centres undefined) -66.3%
CN(CC(=O)Nc1ccc(Cl)cc1)CC(=O)Nc1cc(Cl)ccc1C#N -84.5%

Activity change, inactive:
O=C(N/N=C/c1cc(Cl)c(O)c(Cl)c1)c1cc2c(ccc3ccccc32)o1 -15%
CNC(=S)N1CCC(NC(=O)C(Cc2ccccc2)NC(C)=O)CC1 (centres undefined) 5.91%
O=C(NCc1ccc2c(c1)OCO2)c1ccco1 19.9%
CCc1cccc(NC(=O)CCCn2c(=O)[nH]c3ccsc3c2=O)c1 10.4%
O=C1CC(N2CCN(c3ccc(C(=O)c4ccc(F)cc4)cc3)CC2)C(=O)N1 (centres undefined) -2.57%
O=C1CSC(c2cn(-c3ccccc3)nc2-c2cc3ccccc3oc2=O)N1Cc1ccco1 (centres undefined) -11.7%
N/C(=N\c1nc2ccccc2o1)NC(=O)c1ccccc1 44.6%
CCOC(=O)C1=C(C)N(c2ccccc2)C(=O)NC1c1cccc([N+](=O)[O-])c1 (centres undefined) 4.22%
COC(=O)c1ccc(O)cc1 9.41%
O=C(COc1cccc2ccccc12)N1CCN(c2ccccc2)CC1 -9.77%
CN1CCN(S(=O)(=O)c2ccc(Nc3cccc(Cl)c3)c([N+](=O)[O-])c2)CC1 -7.88%
CCOC(=O)CN1C2=NCCCN2c2ccccc21 -3.38%
CC(CNC(=O)c1cc(COc2ccc3ncccc3c2)on1)c1ccccc1 (centres undefined) -5.23%
Cn1c(COc2ccccc2O)[n+](C)c2ccccc21 -22.4%

Activity change, inconclusive:
CCc1ccccc1NC(=O)c1sc2nc(C)cc(C)c2c1N -34.3%
COc1cccc(-c2cc(C(=O)N3CCN(S(=O)(=O)c4ccccc4)CC3)[nH]n2)c1 -33%
CC(C)C[C@H]1CN([C@@H](Cc2ccc(O)cc2)CN2CCC[C@@H]2CN2C(=O)C(=O)NC[C@@H]2Cc2ccccc2)C(=O)C(=O)N1CC1CCCCC1 -47.5%
COc1ccc(NC(=O)c2oc3ccccc3c2NC(=O)C2CC2)cc1 -41.7%
COc1ccc(-c2ccc3[nH]c4c(c3c2)CCN2C(=O)[C@@H]([C@H](C)O)[C@@H](N(C)C(=O)Nc3cc(Cl)cc(Cl)c3)C[C@@H]42)cc1 -33.4%
C=CCn1c(SCc2csc(C)n2)nc2sc3c(c2c1=O)CCCC3 -41.3%
O=C(CN1C(=O)S/C(=C\c2ccc(F)cc2)C1=O)Nc1cccc(S(=O)(=O)NCc2ccco2)c1 -39.1%
COc1cc(C(=O)N2CCCCC2c2cc(C(=O)Nc3ccccc3)no2)cc(OC)c1C (centres undefined) -34.4%
Cc1ccc(NC(=O)c2csc3c2CCCC3)cc1 -33.5%
COc1cc(/C=C/c2ccc3cccc(OC)c3n2)c(OC(C)=O)c([N+](=O)[O-])c1 -47.1%
CC(C)(C)n1nc2c(c1NC(=O)COc1ccc(Cl)cc1)CSC2 -31.7%
Cc1[nH]nc(N=CC2=C(O)CC(c3ccco3)CC2=O)c1-c1ccc(Cl)cc1 (centres undefined) -40.2%
Cc1ccc(-c2noc(C3CCCN(C(=O)c4ccc(Cl)cc4)C3)n2)o1 (centres undefined) -42.3%
CC1CC(C)CN(CCCNC(=O)C2CCN(c3nnc(-n4cccc4)s3)CC2)C1 (centres undefined) -48.2%
C/C=C/c1ccc(OCCCNC(C)CC)c(OC)c1 (centres undefined) -32.5%
COc1cccc(C2Nc3cccc4cccc(c34)N2)c1 -32.7%
N=C(N)Cc1ccccc1Sc1ccccc1 -47.7%
Cc1ccc(/C=C/c2onc(C)c2S(=O)(=O)N2CCC(C(=O)N3CCCCC3)CC2)cc1 -38%
Cc1nn(CC(C)C)c(Cl)c1C(=O)N(c1ccc(Cl)cc1F)S(C)(=O)=O -31.1%
CCOC(=O)Cn1nnnc1C(C(C)C)N(Cc1cc2c(C)cc(C)cc2[nH]c1=O)C1CCCC1 (centres undefined) -38.5%
COc1ccccc1N1CCN(C(=O)COc2ccc(Cl)cc2Br)CC1 -39.7%
CNc1nc(-c2ccc3c(c2)CCN3C(=O)c2cccc(F)c2)cs1 -44.4%
Cc1ccc2nc(-c3ccc(NC(=S)NC(=O)C(C)C)cc3)sc2c1 -47.7%
Cc1c(Cl)cccc1NC(=O)C1COc2ccccc2O1 (centres undefined) -45.1%
O=C1CCC(CCC(=O)N2CCCC(C(=O)c3ccc4c5c(cccc35)CC4)C2)=NN1 (centres undefined) -37.4%
COCCn1c(SCC(=O)c2cc(C)n(C)c2C)nc2ccccc2c1=O -38.8%
Cc1ccccc1/C=C/C(=O)NCC(=O)N1CCC(N(C)C2CCCCC2C)CC1 (centres undefined) -39%
O=C(Nc1ccc(N2CCOCC2)c(Cl)c1)c1ccccc1Cl -49.6%
O=C(NCc1ccco1)C1CCN(c2nc3ccccc3n2Cc2ccccc2F)CC1 -36.5%
